We go through seven molecules from patent US20220211805A1 (ACCELERON PHARMA, published 2022).

B1: hTβRII (G4S)3-hFc (Fc fusion)
chain: GATIPPHVQKSDVEMEAQKDEIICPSCNRTAHPLRHINNDMIVTDNNGAVKFPQLCKFCDVRFSTCDNQKSCMSNCSITSICEKPQEVCVAVWRKNDENITLETVCHDPKLPYHDFILEDAASPKCIMKEKKKPGETFFMCSCSSDECNDNIIFSEEYNTSNPDTGGGGSGGGGSGGG[human IgG1 Fc and a few adjoining residues not listed]
B2: hTβRII-hFc (Fc fusion)
chain: GATIPPHVQKSDVEMEAQKDEIICPSCNRTAHPLRHINNDMIVTDNNGAVKFPQLCKFCDVRFSTCDNQKSCMSNCSITSICEKPQEVCVAVWRKNDENITLETVCHDPKLPYHDFILEDAASPKCIMKEKKKPGETFFMCSCSSDECNDNIIFSEEYNTSNPDTG[human IgG1 Fc and a few adjoining residues not listed]
B3: hTβRII (G4S)2-hFc (Fc fusion)
chain: GATIPPHVQKSDVEMEAQKDEIICPSCNRTAHPLRHINNDMIVTDNNGAVKFPQLCKFCDVRFSTCDNQKSCMSNCSITSICEKPQEVCVAVWRKNDENITLETVCHDPKLPYHDFILEDAASPKCIMKEKKKPGETFFMCSCSSDECNDNIIFSEEYNTSNPDTGGGGSGGG[human IgG1 Fc and a few adjoining residues not listed]
B4: hTβRII extended hinge-hFc (Fc fusion)
chain: GATIPPHVQKSDVEMEAQKDEIICPSCNRTAHPLRHINNDMIVTDNNGAVKFPQLCKFCDVRFSTCDNQKSCMSNCSITSICEKPQEVCVAVWRKNDENITLETVCHDPKLPYHDFILEDAASPKCIMKEKKKPGETFFMCSCSSDECNDNIIFSEEYNTSNPDTGGG[human IgG1 Fc not listed]
B5: hTβRII (G4S)4-hFc (Fc fusion)
chain: GATIPPHVQKSDVEMEAQKDEIICPSCNRTAHPLRHINNDMIVTDNNGAVKFPQLCKFCDVRFSTCDNQKSCMSNCSITSICEKPQEVCVAVWRKNDENITLETVCHDPKLPYHDFILEDAASPKCIMKEKKKPGETFFMCSCSSDECNDNIIFSEEYNTSNPDTGGGGSGGGGSGGGGSGGG[human IgG1 Fc and a few adjoining residues not listed]
B6: hTβRII (G4S)6-hFc (Fc fusion)
chain: GATIPPHVQKSDVEMEAQKDEIICPSCNRTAHPLRHINNDMIVTDNNGAVKFPQLCKFCDVRFSTCDNQKSCMSNCSITSICEKPQEVCVAVWRKNDENITLETVCHDPKLPYHDFILEDAASPKCIMKEKKKPGETFFMCSCSSDECNDNIIFSEEYNTSNPDTGGGGSGGGGSGGGGSGGGGSGGGGSGGG[human IgG1 Fc and a few adjoining residues not listed]
B7: hTβRII (G4S)5-hFc (Fc fusion)
chain: GATIPPHVQKSDVEMEAQKDEIICPSCNRTAHPLRHINNDMIVTDNNGAVKFPQLCKFCDVRFSTCDNQKSCMSNCSITSICEKPQEVCVAVWRKNDENITLETVCHDPKLPYHDFILEDAASPKCIMKEKKKPGETFFMCSCSSDECNDNIIFSEEYNTSNPDTGGGGSGGGGSGGGGSGGGGSGGG[human IgG1 Fc and a few adjoining residues not listed]

In the first assay the target is T1, human TGFβ1 (human, UniProt P01137 part only). Description: cell-based or functional assay.
As for B1, the “IC50, inhibition of TGFβ1 in the A549 pGL3(CAGA)12 luciferase reporter gene assay” value (shortened to “IC50, inhibition of TGFβ1”) came to 0.22 nM.

For B2, the “IC50, inhibition of TGFβ1” value stood at 7.69 nM.

On to B3, for which the “IC50, inhibition of TGFβ1” value was determined as 1.12 nM.

With B4, the “IC50, inhibition of TGFβ1” value was determined as 5.67 nM.

With B5, the “IC50, inhibition of TGFβ1” value was found to be 70 pM.

For another assay, the target named is T1, human TGFβ1. Description: cell-based or functional assay. This is another data set of the same source.
T1 sequence (P01137 279-390 limits assumed): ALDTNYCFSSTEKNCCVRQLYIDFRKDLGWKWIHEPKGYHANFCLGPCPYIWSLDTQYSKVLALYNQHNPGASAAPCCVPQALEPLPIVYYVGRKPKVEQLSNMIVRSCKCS
Consider B6, for which the “IC50, inhibition of TGFβ1” value worked out at 20 pM.

For the molecule B7, the “IC50, inhibition of TGFβ1” value amounted to 30 pM.
